{"source": "paper PMC4336329", "about": "(PLoS ONE, 2015)", "note": "Hit rate of the full screen: of about 310,000 compounds, about 2,200 (0.71%) showed an effect of 50% or more. Effects have a minus sign here. Some of the results follow.", "data": [{"biological_target": "human ether-à-go-go-related gene (hERG) potassium channel (human, UniProt Q12809)", "sequence (Q12809 whole entry, looked up)": "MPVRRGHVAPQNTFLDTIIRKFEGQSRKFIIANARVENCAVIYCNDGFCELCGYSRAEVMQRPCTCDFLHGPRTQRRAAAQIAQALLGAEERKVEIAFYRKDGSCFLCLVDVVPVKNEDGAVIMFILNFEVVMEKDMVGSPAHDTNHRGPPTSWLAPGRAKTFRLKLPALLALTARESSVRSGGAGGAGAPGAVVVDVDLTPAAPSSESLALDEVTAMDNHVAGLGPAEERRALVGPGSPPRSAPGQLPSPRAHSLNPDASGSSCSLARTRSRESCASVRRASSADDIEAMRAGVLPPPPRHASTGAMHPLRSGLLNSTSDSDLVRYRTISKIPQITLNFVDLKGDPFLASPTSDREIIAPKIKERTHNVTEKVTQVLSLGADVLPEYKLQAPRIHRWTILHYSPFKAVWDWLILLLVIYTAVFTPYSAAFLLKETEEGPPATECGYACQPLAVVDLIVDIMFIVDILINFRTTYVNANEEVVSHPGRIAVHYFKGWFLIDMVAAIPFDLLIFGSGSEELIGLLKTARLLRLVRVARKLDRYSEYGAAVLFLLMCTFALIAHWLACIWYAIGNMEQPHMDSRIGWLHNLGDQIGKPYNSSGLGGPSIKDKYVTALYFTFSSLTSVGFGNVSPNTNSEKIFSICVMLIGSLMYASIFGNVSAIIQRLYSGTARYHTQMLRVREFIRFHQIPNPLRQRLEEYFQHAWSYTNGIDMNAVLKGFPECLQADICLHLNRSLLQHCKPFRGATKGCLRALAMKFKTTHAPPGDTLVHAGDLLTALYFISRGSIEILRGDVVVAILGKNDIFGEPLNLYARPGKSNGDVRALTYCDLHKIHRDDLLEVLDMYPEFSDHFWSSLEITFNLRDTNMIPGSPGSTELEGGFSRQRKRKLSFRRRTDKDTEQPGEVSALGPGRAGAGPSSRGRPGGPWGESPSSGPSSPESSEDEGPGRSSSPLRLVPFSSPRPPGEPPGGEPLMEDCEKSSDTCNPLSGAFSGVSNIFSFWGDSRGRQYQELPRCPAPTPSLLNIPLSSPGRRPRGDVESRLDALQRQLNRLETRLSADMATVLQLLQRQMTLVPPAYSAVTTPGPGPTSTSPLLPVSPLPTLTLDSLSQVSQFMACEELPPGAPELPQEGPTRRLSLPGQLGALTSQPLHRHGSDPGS", "assay": "primary screen, population patch clamp on CHO cells stably expressing hERG", "units": {"hERG current change (%, negative = inhibition) at 1uM": "%"}, "values": [{"smiles": "CS(=O)(=O)C1=NN2C(=N)/C(=C\\c3ccc(OC(=O)c4ccco4)cc3)C(=O)N=C2S1", "hERG current change (%, negative = inhibition) at 1uM": 12.7}, {"smiles": "O=C(Nc1cc(S(=O)(=O)N2CCCC2)ccc1OCC(F)(F)F)c1ccc(F)cc1", "hERG current change (%, negative = inhibition) at 1uM": 5.41}, {"smiles": "CCOCC(=O)Nc1nc2ccc(OCC)cc2s1", "hERG current change (%, negative = inhibition) at 1uM": 15}, {"smiles": "N=C1SCC(=O)N1c1nc(-c2ccccc2)cs1", "hERG current change (%, negative = inhibition) at 1uM": 8.19}, {"smiles": "Cc1sc2ncnc(NCCc3ccc(S(N)(=O)=O)cc3)c2c1C", "hERG current change (%, negative = inhibition) at 1uM": 15.9}, {"smiles": "CC(C)OC(=O)CC12CN3CC(CC(=O)OC(C)C)(CN(C1)C(=O)c1ccccc1C3=O)C2=O", "hERG current change (%, negative = inhibition) at 1uM": 8.55}, {"smiles": "Cc1ccc(N2CC(C(=O)Nc3ccc(S(=O)(=O)Nc4ncccn4)cc3)CC2=O)cc1C", "note": "(centres unmarked)", "hERG current change (%, negative = inhibition) at 1uM": 18.1}, {"smiles": "O=C(NCC1(c2ccccc2)CCCC1)C1(c2ccccc2)CCCC1", "hERG current change (%, negative = inhibition) at 1uM": -13.3}, {"smiles": "COc1ccc(NC(=O)C(C)Oc2ccc(/C(C)=N\\O)cc2)cc1", "note": "(centres unmarked)", "hERG current change (%, negative = inhibition) at 1uM": 15}, {"smiles": "CCCC(=O)N(Cc1cc2cccc(C)c2[nH]c1=O)c1ccccc1OC", "hERG current change (%, negative = inhibition) at 1uM": 15.3}, {"smiles": "CSc1ccc(Cl)c(C(=O)N2CCN(c3ncccn3)CC2)c1", "hERG current change (%, negative = inhibition) at 1uM": -5.77}, {"smiles": "COc1cccc(C(=O)NOCc2ccc(C)cc2)c1OC", "hERG current change (%, negative = inhibition) at 1uM": -2.52}, {"smiles": "CCN(CC)S(=O)(=O)c1ccc(C(=O)NCCCN=C2NS(=O)(=O)c3ccccc32)cc1", "hERG current change (%, negative = inhibition) at 1uM": 2.62}, {"smiles": "O=c1c2ccccc2ncn1-c1ccccc1C(F)(F)F", "hERG current change (%, negative = inhibition) at 1uM": 9.54}, {"smiles": "Cc1ccc(C(=O)C2CCN(CC(=O)NCc3ccc(F)cc3)CC2)cc1", "hERG current change (%, negative = inhibition) at 1uM": -17.5}, {"smiles": "CCn1c(=O)n(CC)c2cc([N+](=O)[O-])c(N3CCNCC3)cc21", "hERG current change (%, negative = inhibition) at 1uM": 15.2}, {"smiles": "Cc1c(NC(=O)Nc2ccc3c(c2)OCO3)c(=O)n(-c2ccccc2)n1C", "hERG current change (%, negative = inhibition) at 1uM": -1.51}, {"smiles": "CC(C)(C)c1ccc(NC(=O)c2ccc(=O)[nH]n2)cc1", "hERG current change (%, negative = inhibition) at 1uM": 4.23}, {"smiles": "COc1cccc(C2C(C(=O)c3cc4cccc(OC)c4o3)=C(O)C(=O)N2c2cc(C)on2)c1OC", "note": "(centres unmarked)", "hERG current change (%, negative = inhibition) at 1uM": 2.78}, {"smiles": "Cc1ccc(C)c(S(=O)(=O)N2CCN(CC(=O)Nc3ccc4c(c3)OCCO4)CC2)c1", "hERG current change (%, negative = inhibition) at 1uM": 6.66}, {"smiles": "Cc1cc(C(F)F)nn1CC(=O)NCc1ccccc1F", "hERG current change (%, negative = inhibition) at 1uM": 6.99}, {"smiles": "C=CCOc1cccc(C2/C(=C(\\O)c3ccc4c(c3)OCCO4)C(=O)C(=O)N2CCN2CCOCC2)c1", "note": "(centres unmarked)", "hERG current change (%, negative = inhibition) at 1uM": 6.52}, {"smiles": "CN(C)CCNCCCOc1ccccc1-c1ccccc1.O=C(O)C(=O)O", "hERG current change (%, negative = inhibition) at 1uM": 4.5}, {"smiles": "CCCn1cnc2c(cnn2-c2ccc(F)cc2)c1=O", "hERG current change (%, negative = inhibition) at 1uM": 5.66}, {"smiles": "O=C(Nc1ccc(-c2cn3ccsc3n2)cc1)C1CCCC1", "hERG current change (%, negative = inhibition) at 1uM": 11.7}, {"smiles": "CCOc1cc(C2C(C(=O)OCC(C)C)=C(C)N=C3SCCC(=O)N32)ccc1OC(C)=O", "note": "(centres unmarked)", "hERG current change (%, negative = inhibition) at 1uM": -0.245}, {"smiles": "CCCCNc1nc(-c2ccccc2)cc(C(F)(F)F)c1C(N)=O", "hERG current change (%, negative = inhibition) at 1uM": 11.3}, {"smiles": "CCOC(=O)N1CCC(NC(=O)Cn2ncc3c2-c2cc(C)ccc2OC3)CC1", "hERG current change (%, negative = inhibition) at 1uM": 10.9}, {"smiles": "COc1ccc(-c2nnc(NC(=O)CSc3ccccc3)s2)cc1OC", "hERG current change (%, negative = inhibition) at 1uM": 16.9}, {"smiles": "CC1CCN(Cc2nnnn2-c2ccc(Cl)cc2)CC1", "hERG current change (%, negative = inhibition) at 1uM": 8.07}, {"smiles": "Cc1ccc(C2N(c3cccc(Cl)c3)C(=O)N3CCCN23)cc1", "note": "(centres unmarked)", "hERG current change (%, negative = inhibition) at 1uM": 15.7}, {"smiles": "COc1cccc(N(C(=O)c2ccco2)c2nc(-c3sc(NC(=O)c4ccco4)nc3C)cs2)c1", "hERG current change (%, negative = inhibition) at 1uM": 13.8}, {"smiles": "Cc1ccsc1/C=N\\NC(=O)Cn1nnc2ccccc21", "hERG current change (%, negative = inhibition) at 1uM": 7.58}, {"smiles": "CCOC(=O)C1CCCCN1C(=O)CCc1nnc(-c2ccc3c(c2)OCO3)o1", "note": "(centres unmarked)", "hERG current change (%, negative = inhibition) at 1uM": 12.3}, {"smiles": "O=c1cc(CSc2ccccn2)[nH]c(=O)[nH]1", "hERG current change (%, negative = inhibition) at 1uM": 2.75}, {"smiles": "O=C(CN1C(=O)S/C(=C\\c2ccc(-c3cc(C(=O)O)ccc3Cl)o2)C1=O)Nc1ccc2c(c1)OCO2", "hERG current change (%, negative = inhibition) at 1uM": 14.4}, {"smiles": "Cc1ccc2c(Cl)c(C)c(N3CCCC3)nc2n1", "hERG current change (%, negative = inhibition) at 1uM": 0.942}, {"smiles": "CCN1CCN(c2cc3c(cc2F)c(=O)c(S(=O)(=O)c2ccccc2)cn3C)CC1", "hERG current change (%, negative = inhibition) at 1uM": 5.79}, {"smiles": "CCCOP(=O)(c1ccc(N(C)C)cc1)C(O)c1c(Cl)cccc1Cl", "note": "(centres unmarked)", "hERG current change (%, negative = inhibition) at 1uM": 14}, {"smiles": "COc1ccccc1CCC(=O)Nc1nc2ccccc2[nH]1", "hERG current change (%, negative = inhibition) at 1uM": 18.7}, {"smiles": "O=c1c2ccccc2nc(/C=C/c2ccc(F)cc2)n1-c1ccccc1O", "hERG current change (%, negative = inhibition) at 1uM": 2.24}, {"smiles": "COc1ccc(Br)cc1CN(C)CC(=O)Nc1c(Cl)cccc1Cl", "hERG current change (%, negative = inhibition) at 1uM": 4.1}, {"smiles": "Cn1cc(CN2CCC(n3nccc3NC(=O)C3CCCC3)CC2)cn1", "hERG current change (%, negative = inhibition) at 1uM": 0.668}, {"smiles": "CCOC(=O)c1cnn(-c2ccccc2)c1NC(=O)c1cccs1", "hERG current change (%, negative = inhibition) at 1uM": 2.37}, {"smiles": "COc1ccc(-n2c(SCC(=O)Nc3cccc(C(=O)O)c3)nnc2-c2ccco2)cc1", "hERG current change (%, negative = inhibition) at 1uM": 12.4}, {"smiles": "O=C(NCC1CCCO1)c1ccc(N2CCCCC2)c([N+](=O)[O-])c1", "note": "(centres unmarked)", "hERG current change (%, negative = inhibition) at 1uM": 7.52}, {"smiles": "Cc1cc(N)c(NC2=CC(=O)CC(C)(C)C2)cc1C", "hERG current change (%, negative = inhibition) at 1uM": 4.99}, {"smiles": "CCOC(=O)C(=O)N1CCN(CC)CC1", "hERG current change (%, negative = inhibition) at 1uM": 12.1}, {"smiles": "COc1cc(NC(=O)C(F)(F)F)cc(OC)c1", "hERG current change (%, negative = inhibition) at 1uM": 2.19}, {"smiles": "Cc1cc(N2CCC(C(=O)N3CCN(c4cccc(C)c4C)CC3)CC2)n2ncnc2n1", "hERG current change (%, negative = inhibition) at 1uM": -7.35}, {"smiles": "O=C(Cn1c(=O)oc2cc(S(=O)(=O)N3CCCCCC3)ccc21)NC1CCCCCCC1", "hERG current change (%, negative = inhibition) at 1uM": 4.3}, {"smiles": "Cc1ccc(Cn2c(=O)sc3ccccc3c2=O)cc1", "hERG current change (%, negative = inhibition) at 1uM": 15.1}, {"smiles": "NNC(=O)c1c(O)c2cccc3c2n(c1=O)CCC3", "hERG current change (%, negative = inhibition) at 1uM": 20.2}, {"smiles": "CCc1c(C)sc(NC(=O)Cn2nc(C)c([N+](=O)[O-])c2C)c1C(N)=O", "hERG current change (%, negative = inhibition) at 1uM": 11.7}, {"smiles": "CC1CCCCN1C(=O)CN1C(=O)c2ccccc2S1(=O)=O", "note": "(centres unmarked)", "hERG current change (%, negative = inhibition) at 1uM": 3.49}, {"smiles": "c1ccc2c(-c3cn4ccccc4n3)c[nH]c2c1", "hERG current change (%, negative = inhibition) at 1uM": 13}]}]}
